# Experimental data as given in the supplement of paper PMC3334620.
# Whole data set: some 33,000 sequences, median “E-score (-0.5 to 0.5)” near -0.036, cut for the highest 2% near 0.37. This is one part of the list.
# Target: T1, Yer064c (UniProt P40041)
# T1 sequence: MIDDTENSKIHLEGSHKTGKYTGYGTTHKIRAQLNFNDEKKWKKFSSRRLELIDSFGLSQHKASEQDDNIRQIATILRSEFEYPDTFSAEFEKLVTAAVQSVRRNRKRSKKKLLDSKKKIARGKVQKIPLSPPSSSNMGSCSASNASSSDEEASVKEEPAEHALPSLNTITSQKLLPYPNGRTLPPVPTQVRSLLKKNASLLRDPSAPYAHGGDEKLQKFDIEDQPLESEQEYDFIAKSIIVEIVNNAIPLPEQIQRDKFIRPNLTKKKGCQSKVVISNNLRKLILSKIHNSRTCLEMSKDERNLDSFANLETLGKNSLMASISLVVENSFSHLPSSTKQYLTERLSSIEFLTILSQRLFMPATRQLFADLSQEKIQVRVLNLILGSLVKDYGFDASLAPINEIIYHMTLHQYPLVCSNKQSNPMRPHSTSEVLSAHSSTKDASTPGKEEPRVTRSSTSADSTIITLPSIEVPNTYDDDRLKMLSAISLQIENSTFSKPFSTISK
# Experiment: PBM E-score (8-mer binding enrichment) (E-score (-0.5 to 0.5)); higher = stronger / more preferred TF binding; most listed sequences are background and not binding sites
# Settings: protein concentration: 200 nM; construct: GST-full length
# Summary of the method: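 Each ungapped eight-base word and its reverse complement, pooled, received an E-score from the Universal PBM Analysis Suite. Underlying scans, normalised with masliner, recorded fluorescent anti-GST bound to GST-tagged yeast transcription factors. These were applied at about 100-200 nM to universal all-10-mer Agilent arrays double-stranded by primer extension.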
row,Sequence,PBM E-score
1,ATCCGGCG,-0.0969
2,ATACGGAT,-0.0661
3,ACAGCGCA,0.0121
4,GGACTGCC,-0.112
5,ATTAGCAC,0.0943
6,CCGACCGA,-0.175
7,GAGCCGCA,0.00564
8,CTACCCCC,-0.129
9,CGAATTGC,-0.28
10,AGGTACCG,-0.156
11,GGACTATA,0.184
12,GAATCTGC,-0.0859
13,TCGCGGAA,0.112
14,CCACCGGC,-0.201
15,ACCCCTTC,-0.18
16,CATCGCCG,-0.254
17,GCGACACC,-0.173
18,GATTTTGC,-0.13
19,CGTCTTTA,0.0496
20,CCCTTGCC,-0.0358
21,ATTCTTAA,0.0674
22,CCGGGAAC,-0.219
23,ATCGGGTC,-0.0248
24,CAGCACTC,0.0647
25,GCGAGAGA,-0.132

row,Sequence,PBM E-score
1,ATGTGGTA,0.047
2,CGTTAGAG,-0.0495
3,GAGGACAC,-0.221
4,ACCTCCAC,-0.149
5,ACTGATCT,0.217
6,GCTATCCA,-0.0339
7,GCGGCAAC,-0.255
8,ACATGCGA,0.138
9,TCGTCAGA,-0.15
10,GGCGAGGA,-0.0544
11,GAGTTATA,0.147
12,AGGATAGG,-0.0969
13,CCCTTTTA,-0.0873
14,GCCATACC,-0.166
15,CGGACTAG,-0.00496
16,GGGCCGGA,-0.261
17,GGTGCAAA,-0.221
18,ACCAGACG,-0.0677
19,ATACCAGA,0.0591
20,GTTAAAGA,0.0949
21,AATCAGGC,0.306
22,CAGTAGCA,-0.0537
23,ACCCTCCT,-0.241
24,GATTGAGC,0.166
25,ACGTACGA,-0.184

row,Sequence,PBM E-score
1,ATGGCGAG,0.0883
2,CAGCCGTA,-0.114
3,AGTATGGA,-0.0074
4,CACGATGA,0.229
5,AGCCCGTG,-0.0747
6,ACGTGTCC,-0.113
7,TGCGGGAA,-0.0294
8,AGTTATCC,-0.033
9,CTAGCTGA,0.0232
10,AAGAGAAA,-0.126
11,AGTAAGAA,0.147
12,GCTCAACC,0.189
13,GAAATTGA,0.145
14,CGAAAGGA,-0.0257
15,AAAGCACG,-0.00773
16,CACCCCCA,-0.0361
17,GCATTCTA,-0.213
18,AAGACCTG,-0.22
19,AAAGCGAG,-0.0981
20,GCGTGGGA,-0.152
21,CCAAACAC,-0.11
22,AATACCAG,-0.0862
23,AACCGCTG,-0.189
24,AAATACCA,0.0501
25,GAAGCTAC,0.0449

row,Sequence,PBM E-score
1,TGTCCTAA,-0.0793
2,AACACAAC,0.0654
3,AAAGCAAT,0.0493
4,GGATGGCA,-0.133
5,GGCTTACA,-0.163
6,TACGTATA,0.0589
7,AAGGGACA,-0.225
8,AGAGTATC,0.0567
9,GGGGCGAA,-0.172
10,ACTGTGCG,-0.041
11,ACCTCCGA,0.108
12,ATTGTGTG,-0.0514
13,ATCTACCC,0.0473
14,CCATTACG,-0.038
15,GCCCTCCA,-0.293
16,ACCGGTGA,0.0651
17,CCCACACG,-0.134
18,AGGTTTTG,-0.243
19,CACCCCCG,-0.0753
20,ACAACTGA,0.0449
21,ACAACTCT,0.175
22,AGGTACCA,-0.0498
23,AGATCAAC,0.0956
24,ATGTTGCG,-0.0228
25,CATACTAG,0.0263

row,Sequence,PBM E-score
1,ATCTAAGC,-0.161
2,CCTGTATC,-0.112
3,ATCCAACA,-0.0352
4,GCCGAGTA,-0.242
5,AAGGGAAA,0.0643
6,CCGAAGCG,-0.12
7,ACGAGGCC,-0.172
8,ATGGTGTG,0.0548
9,GCTTTCAC,-0.252
10,ACTTCCAC,-0.114
11,AACGGGGG,-0.173
12,ACGCGAGT,0.222
13,AGGTCTAG,-0.06
14,AGATATAG,0.0428
15,GGTCGACA,-0.158
16,CATAGCAG,-0.0116
17,ACGAGCTC,-0.0386
18,GATACCAC,-0.113
19,TGTCTGAA,0.0776
20,GGGATACC,-0.278
21,ATAGTGTA,-0.0175
22,CACAAGAA,0.0656
23,AGTTTTCA,-0.118
24,AAGCTTCT,-0.333
25,AGGATGGG,0.119

row,Sequence,PBM E-score
1,AAGCAAAC,-0.213
2,CGTTGGAA,-0.123
3,AGTAACCG,-0.0492
4,CCTCCCCA,-0.118
5,AACATTGC,-0.17
6,CGTAGGGA,-0.131
7,AACTCAGC,0.022
8,CAATGAAA,0.104
9,ACCATTCC,-0.199
10,ACGGACAG,-0.228
11,CTTTGTAA,0.173
12,AAAGAACG,-0.161
13,AGCAAGGG,-0.125
14,GAGCCGGA,-0.159
15,AACGTACC,-0.083
16,CGCACATC,0.00301
17,CTCTCGTC,-0.254
18,AAGGAACA,0.0102
19,ATATCGTG,-0.0602
20,AATGGCCG,-0.169
21,GAAGTGCC,-0.336
22,GGGATTAC,0.0594
23,ATTCGGCC,-0.284
24,GTCATCCA,0.314
25,TATGCATA,-0.0476

row,Sequence,PBM E-score
1,CATTTAGA,0.0892
2,ACTTTCCA,0.0527
3,TGGTTAAA,0.311
4,CTCAGAGA,0.136
5,GTGAATAA,0.0323
6,CGTAAAAA,0.0562
7,AGACACAA,0.226
8,AGGACCCT,-0.21
9,ATGCTTTG,-0.00054
10,ATAATTAT,0.178
11,ACCTTTCT,-0.128
12,ATAAATGC,-0.12
13,CTTGTGCC,-0.148
14,CCTCTACC,-0.285
15,ACAGAGGG,-0.214
16,CCCCAGGC,-0.41
17,ATCAACCG,0.0982
18,ATTGTATC,0.00167
19,CTCACGGA,0.155
20,ACACTGCC,0.0668
21,ATTGGGAC,0.0416
22,CCTACACG,-0.0592
